# Assay results published in PubChem BioAssay AID434955 (Southern Research Specialized Biocontainment Screening …, 2010).
# Some of the results follow. These are further read-outs of the screen, such as a control signal, another cell line or another target. No call is given for them. Most of these compounds were active or inconclusive in the main read-out, so they are no random draw.
# Assay: beta-lactam sensitization of Mtb H37Rv, H37Rv (AID 434955);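 further: growth measured after seven days incubation then overnight dye step; 0% = bacteria only wells and 100% = bacteria with antibiotic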
# Conditions: M. tuberculosis H37Rv growth with meropenem, percent inhibition; measured here: primary screen without meropenem; at 25 µM
row,Compound,inhibition [%]
1,CN(C)CCNC(=O)C1(O)c2cc(Br)ccc2NC(=O)N1c1ccc(Cl)cc1 (stereo not given),1.63
2,CCOC(=O)CSc1nnc(Cn2c(=O)sc3ccccc32)n1C,-8.44
3,Cc1ccc(S(=O)(=O)Nc2cccc(-n3cnnn3)c2)cc1C(=O)O,-5.17
4,NNC(=O)CSc1cccc2cccnc12,8.21
5,CC(=O)N1CCc2c(sc(NC(=O)CCS(=O)(=O)c3ccccc3)c2C#N)C1,1.13
6,O=C(Nc1ccnn1C1CCN(C(=O)CCc2ccc(F)cc2)CC1)C1CCOC1 (stereo not given),-4.59
7,Nc1c(Cl)cc(-c2csc(N3CCCC3c3nc4cc(Cl)c(N5CCCCC5)cc4n3CCCO)n2)cc1Cl (stereo not given),1.58
8,Cc1ccc(S(=O)(=O)Nc2cc(C(=O)O)ccc2N2CCCCC2)cc1,1.06
9,Cc1cc(C)n(-c2nc3ccccc3c(=O)n2OCC(=O)N(C)C)n1,6.74
10,COc1cc2[nH]c(=O)n(CCC(=O)NCCC(C)C)c(=O)c2cc1OC,-1.53
11,Cc1ccc(C(=O)N(CN2CCCC2=O)c2ccc(F)cc2)cc1C,0.47
12,Cc1ccccc1Cn1nc(C)c(NC(=O)C2c3ccccc3Oc3ccccc32)c1C,3.32
13,COc1ccc(OCc2cc(C(=O)NCc3nc(C)cs3)no2)c(Cl)c1,4.57
14,COc1ccccc1N1CCN(C2CCCN(S(=O)(=O)c3ccccc3)C2)CC1 (stereo not given),10.1
15,CCOC(=O)c1[nH]c(C)c(C(=O)Nc2ccc(Cl)cc2)c1C,-0.24
16,Cc1cc(Br)ccc1OCC(=O)NC1CCCC1,-0.4
17,CC1=C(C(=O)OC(C)(C)C)C(c2cccc3ccccc23)NC(=O)N1 (stereo not given),11.3
18,COc1cc(Nc2cc(C)nc3ncnn23)cc(OC)c1OC,-0.63
19,CCN=c1scc(-c2ccccc2)n1/N=C/c1ccccn1,24.1
20,CCCN1CCc2c(sc(NC(=O)c3ccc(S(=O)(=O)N4CCN(C(=O)OCC)CC4)cc3)c2C(N)=O)C1,6.04
21,Cc1cccc2cc(CN(CC3CCCO3)C(=O)c3ccncc3)c(=O)[nH]c12 (stereo not given),-6.75
22,CCN1CCc2c(sc(NC(=O)c3ccc(S(=O)(=O)N(C)CC4CCCO4)cc3)c2C(N)=O)C1 (stereo not given),2.57
23,Oc1cccc2ccc(/C=C/c3ccc(Br)s3)nc12,-7.81
24,Cc1ccc(CNC(=O)c2cn(C)c3ccc(S(=O)(=O)N4CCOCC4)cc3c2=O)cc1,41
25,COc1cc(NC(=O)C2CC2)c(C(=O)O)cc1OC,4.67
26,CC(C)c1ccc(-c2nnn(Cc3nc4ccccc4s3)n2)cc1,-3.06
27,C#CCN(C(=O)c1cc(COc2ccc(C)c(C)c2)on1)C1CCCCC1,1

row,Compound,inhibition [%]
1,C/C(=N\NC(=S)Nc1ccccc1C)c1cc2ccccc2o1,35.1
2,CCn1c(SCC(=O)Nc2cccc(NC(C)=O)c2)nc2c([nH]c3ccccc32)c1=O,7.15
3,CCc1cc2c(=O)c(-c3nc4ccccc4n3C)coc2c(CN2CCCC(C)C2)c1O (stereo not given),4.74
4,CC1(C)c2[nH]c3ccccc3c2C[C@H]2C(=O)N(N)CC(=O)N21,-0.08
5,Cc1ccc(S(=O)(=O)NC2CC2)s1,5.62
6,O=c1c2c(nc3n1CCCCC3)sc1c(O)c(Br)ccc12,24.3
7,O=[N+]([O-])C(/C=C(/Cl)[N+](=O)[O-])=C(N1CCCCC1)N1CCCCC1,6.03
8,O=C(COC(=O)c1ccc([N+](=O)[O-])s1)NCc1ccccc1,40.3
9,Cc1cc(C(=O)Nc2nnc(-c3ccccc3)s2)no1,32.4
10,CCOc1ccc(-n2cc(-c3ccc(OC)c(OC)c3)[nH]c2=S)cc1,-1
11,CSCCC(C)N1CCC(Oc2ccc(C(=O)N3CCCC3)cc2)CC1 (stereo not given),-3.11
12,CC(CCc1ccccc1)NC(=O)COc1ccc(S(=O)(=O)N2CCOCC2)cc1[N+](=O)[O-] (stereo not given),-8.09
13,Cc1nn(CCC(=O)NNC(=S)NCC(C)C)c(C)c1Br,-0.97
14,COc1ccc(CCC(=O)N2CCCC(Nc3ccccc3)C2)cc1OC (stereo not given),4.3
15,CCOc1cccc(C(=O)Nc2cc(-c3nn4c(C)nnc4s3)ccc2C)c1,45.9
16,O=C(Nc1ccc2c(c1)nc1n2CCN(Cc2ccccc2)C1)c1cccs1,-10.9
17,Cc1cccc(/C=C/c2onc(C)c2S(=O)(=O)N2CCC(C(=O)NC(C)(C)C)CC2)c1,-14.8
18,CCC1(c2ccccc2)NC(=O)N(CC(=O)N2CCN(S(=O)(=O)c3ccccc3)CC2)C1=O (stereo not given),-1.86
19,Cc1noc(C)c1S(=O)(=O)N1CCN(Cc2ccc3c(c2)OCO3)CC1,-3.65
20,CCOC(=O)CC1CCCCN1C(=O)CCCn1nnnc1CN1CCC(C)CC1 (stereo not given),-0.48
21,Cn1c(O)c(/C=C2\C=Nc3ccc(Br)cc32)c(=O)n(C)c1=O,-1.71
22,COc1ccc(C(=O)OCCN=C2NS(=O)(=O)c3ccccc32)cc1OC,1.25
23,C#Cc1ccc(CN2CCC(Oc3ccc(C(=O)NCc4ccccn4)cc3)CC2)cc1,8.56
24,COc1cc(NC(=O)C2CC(c3cccc(OC)c3OC)=NO2)cc(OC)c1OC (stereo not given),-5.06
25,Cc1ccc(Nc2nc(N)nc(CC#N)n2)cc1,42.9
26,Cc1nnsc1C(=O)NCc1c(F)cccc1Cl,8.28
27,Cc1ccc(C)c(S(=O)(=O)N2CCN(CC(=O)NC(C)c3ccccc3)CC2)c1 (stereo not given),8.95

row,Compound,inhibition [%]
1,Cc1ccc(NC(=O)c2ccccc2N(C)S(C)(=O)=O)cc1C,0.48
2,CN(C)CCNC(=O)c1ccc(CS(=O)(=O)c2c(Cl)cccc2Cl)o1,-0.68
3,CCOC(=O)/C(C#N)=C/c1ccc(OCC(=O)Nc2ccccc2)c(OC)c1,38.8
4,COc1ccc(CN2CCNC(=O)C2CC(=O)N(C)Cc2ccno2)c(F)c1 (stereo not given),-8.63
5,Cc1cccc2sc(N(CCN(C)C)C(=O)c3ccc4ccccc4c3)nc12,3.86
6,CCOc1ccc2nc(SC3CC(=O)N(c4cccc(OC)c4)C3=O)sc2c1 (stereo not given),23.5
7,Cc1c(CNC(=O)C2CCC(=O)N(CCc3ccccc3)C2)cnn1C (stereo not given),-3.89
8,COC(=O)c1ccc(-c2csc(NC(=O)C3=COCCO3)n2)cc1,4.71
9,CCCCN(C)CC(O)Cn1cc(/C=C/C(=O)c2ccc(OCC)cc2)c2ccccc21 (stereo not given),99.5
10,O=C(CN(c1ccccc1F)S(=O)(=O)c1ccccc1)Nc1ccc2c(c1)OCCO2,-1.79
11,CCCCSC(=S)NC1CCS(=O)(=O)C1 (stereo not given),5.96
12,COc1cccc(NC(=O)c2ccccc2N2C(=O)C3C4C=CC(C4)C3C2=O)c1 (stereo not given),-7.44
13,CCOC(=O)c1c(CN2CCCCC2C)oc2ccc(OC)cc12 (stereo not given),-6.61
14,Cc1ccc(C(=O)Nc2ccc(Cl)cc2C(=O)c2ccccc2)cc1,24.2
15,Cc1ccc(-c2nc(CS(=O)CC(=O)NCCN(CC(C)C)CC(C)C)c(C)o2)cc1 (stereo not given),-5.1
16,CSc1ccc(Cn2nnc(C(=O)NCc3ccccc3)c2N)cc1,-5.88
17,NC(=O)C1CCN(C(=O)CN(c2cccc(Cl)c2)S(=O)(=O)c2ccccc2)CC1,-4.47
18,O=C(COc1ccccc1F)Nc1c2c(nn1-c1ccccc1)CS(=O)(=O)C2,21.1
19,CCN(CC(=O)Nc1ccccc1OC)C(=O)COc1ccc2ccccc2c1,2.67
20,CCCCn1c(N)c(N(CC)C(=O)CSCc2c(C)noc2C)c(=O)[nH]c1=O,3.74
21,COc1cc2c(cc1OC)[C@H](C)N(C(=O)COc1ccccc1)CC2,3.6
22,Cc1ccc(C)c(SCc2noc(C(=O)NCC3CCCO3)c2C(=O)O)c1 (stereo not given),27.9
23,Cc1cccc(N(C(=O)c2cnc3n(c2=O)CCS3)C2CCCCC2)c1,-4.25
24,CC(C)c1ccc(/C=C/C(=O)NC2CCCCC2)cc1,11.4
25,CCOc1[nH]n(-c2ccc(Cl)cc2)c(=O)c1C=Nc1ccc(O)cc1,7.79
26,COc1ccc(S(=O)(=O)N(C)c2ccc(C(=O)N3CCCCC3)cc2)cc1,-3.98
27,O=C(Nc1ccccc1C(=O)N1CCCC1)C1CCN(c2ncccn2)CC1,1.89

row,Compound,inhibition [%]
1,Cc1nn2c(N3CCOCC3)cc(C(C)C)nc2c1-c1ccccc1,-3.71
2,O=C(Nc1nc2ccccc2n1Cc1ccccc1)c1ccc(COc2ccccc2[N+](=O)[O-])o1,10.6
3,Cc1ccccc1C(=O)c1cccn1CC(=O)NCc1ccc2c(c1)OCO2,-4.39
4,Cc1nc(NCC2CCCO2)c2nnn(Cc3ccccc3)c2n1 (stereo not given),-7.93
5,COc1cccc(OC)c1OCCCc1c(C)n[nH]c1C,0.07
6,O=C(COCc1cc(-c2ccc3c(c2)OCO3)on1)N1CCN(c2ccc(F)cc2)CC1,3.93
7,COCc1ccc(CN2CCC(n3nccc3NC(=O)CCOc3ccccc3)CC2)o1,-4.71
8,Cc1coc2c(C)c3oc(=O)c(CCC(=O)NCCC(=O)O)c(C)c3cc12,1.77
9,CN(CC1CCCO1)S(=O)(=O)c1ccc(C(=O)Nc2ccc(F)cc2)cc1 (stereo not given),-1.26
10,Cn1nccc1C(=O)N(CCN1CCCCC1)CC1CCCN(C2CCCC2)C1 (stereo not given),3.91
11,CCN(CC)c1ccc(NC(=O)CSc2nnc(N)s2)cc1C,-6.12
12,CCN(CC)CCN1C(=O)c2ccccc2NC1c1ccc(C)cc1 (stereo not given),1.76
13,COc1cccc(C2CC(c3ccccc3OC)n3ncnc3N2)c1 (stereo not given),-5.17
14,Cc1ccc(S(=O)(=O)c2nc(C(C)(C)C)oc2N2CCOCC2)cc1,-6.95
15,CC1CCCCC1NC(=O)COCc1cc(-c2cccs2)on1 (stereo not given),5.9
16,CCCCn1c(O)c(C(CC)=NC(C)c2ccccc2)c(=O)[nH]c1=O (stereo not given),6.7
17,Cc1ccc(C(=O)C(C)Oc2ccc3ccc(=O)oc3c2)cc1 (stereo not given),11.9
18,CC1CCN(C(=O)CSc2nc(N)c(NC(=O)c3ccccc3)c(=O)[nH]2)CC1,-0.02
19,COC(=O)c1ccccc1OC(=O)c1cc2ccccc2oc1=O,11.2
20,CC1CC(C)CN(C(=O)CSc2nnc(-c3ccc(F)cc3)o2)C1 (stereo not given),-3.25
21,CC1CCc2nn(CC(=O)NCCCN3CCOCC3)cc2C1 (stereo not given),1.68
22,CCN1CCN(Cc2cc(Br)cc(OC)c2O)CC1,-1.27
23,Cc1noc(/C=C/N(C)C)c1S(=O)(=O)N1CCCC(C(=O)NC(C)c2ccccc2)C1 (stereo not given),2.26
24,CCOC(=O)N1CCN(C(=O)C2CCN(C(=O)c3ccc([N+](=O)[O-])cc3)CC2)CC1,2.98
